# Data published in the antibiotic and cytotoxicity screens of Wong et al. (2023).
# The list shows a part of the results.
# What was measured:
# [1] = system: HSkMC (human skeletal muscle cells); assay: cytotoxicity call (relative viability < 0.9); conditions: 10 µM
# [2] = system: S. aureus RN4220; assay: growth inhibition call (relative growth <= 0.2); conditions: 50 µM
SMILES,cytotoxicity call [1],growth inhibition call [2]
C[C@H](CO)N1C[C@H](C)[C@@H](CN(C)C(=O)NC2CCCCC2)Oc2ccc(NC(=O)Cn3cnnn3)cc2C1=O,inactive,inactive
O=C(C[C@@H]1C[C@H]2c3cc(NS(=O)(=O)c4ccc(F)cc4)ccc3O[C@H]2[C@@H](CO)O1)NCc1ccc(Oc2ccccc2)cc1,inactive,inactive
O=C(NC(=O)N1CCOCC1)c1ccc(S(=O)(=O)N2CCOCC2)cc1,inactive,inactive
C[C@@H]1CN([C@@H](C)CO)C(=O)c2cccc(NC(=O)Nc3ccccc3)c2O[C@@H]1CN(C)S(=O)(=O)c1cn(C)cn1,inactive,inactive
CC1(C)S[C@@H]2[C@H](NC(=O)[C@H](N)c3ccc(O)cc3)C(=O)N2[C@H]1C(=O)O,inactive,active
CN1Cc2c(Cl)cc(Cl)cc2[C@H](c2cccc(S(=O)(=O)NCCOCCOCCNC(=O)NCCCCNC(=O)NCCOCCOCCNS(=O)(=O)c3cccc([C@@H]4CN(C)Cc5c(Cl)cc(Cl)cc54)c3)c2)C1,inactive,inactive
CC(C)c1ccc2c(ccc[n+]2C)c1,inactive,inactive
COC(=O)C1=C2CC[C@H](CO)NC(=O)N[C@H](Cc3ccccc3)C(=O)NCc3cn(nn3)C[C@@H](Cc3ccccc3)NC(=O)c3oc(c(C(=O)OC)c3C(=O)OC)CC[C@H](CO)NC(=O)N[C@H](Cc3ccccc3)C(=O)NCc3cn(nn3)C[C@@H](Cc3ccccc3)NC(=O)C(=C1C(=O)OC)O2,inactive,inactive
COc1ccc(S(=O)(=O)Nc2ccc3c(c2)CC(=O)N([C@@H](C)CO)C[C@H](C)[C@@H](CN(C)C(=O)Nc2c(C)noc2C)O3)cc1,inactive,inactive
COc1ccc(CN(C)C[C@H]2OCCCC[C@H](C)Oc3ccc(NC(=O)Cc4ccccc4)cc3C(=O)N([C@H](C)CO)C[C@H]2C)cc1,inactive,inactive
CC(C)(C)[S@@](=O)N1Cc2cc(C(=O)N3CCCCC3)nc(-c3cccc(C4=CCCC4)c3)c2[C@H]1CCO,inactive,inactive
O=C(C[C@@H]1CC[C@H]2[C@@H](COC[C@@H](O)CN2C(=O)Nc2ccc(Cl)cc2)O1)NCCc1ccncc1,inactive,inactive
CCOC(=O)c1c(CN2CCN(Cc3ccccc3)CC2)n(-c2ccccc2)c2cc(Br)c(OC)cc12,inactive,inactive
Cc1ccc(S(=O)(=O)N(C)C[C@H]2Oc3cc(C#Cc4ccccc4)ccc3S(=O)(=O)N([C@@H](C)CO)C[C@@H]2C)cc1,inactive,inactive
CC(C)(C)Nc1nc(=O)[nH]c(=O)[nH]1,inactive,inactive
OC[C@@H]1CCCO1,inactive,inactive
C[C@@]1(NC(=O)Cc2ccc(S(=O)(=O)N3CCOCC3)s2)CCS(=O)(=O)C1,inactive,inactive
COc1ccccc1OCC(O)CO (stereo not drawn),inactive,inactive
COc1ccc(CNC(=O)C[C@H]2C[C@@H]3c4cc(NS(=O)(=O)c5ccc(F)cc5)ccc4O[C@@H]3[C@H](CO)O2)cc1,inactive,inactive
C[C@H]1CN([C@@H](C)CO)S(=O)(=O)c2ccc(C#CC3CC3)cc2O[C@@H]1CN(C)Cc1ccccc1F,inactive,inactive
Nc1ncnc2c1ncn2[C@@H]1O[C@H](CO)[C@@H](O)[C@H]1O,inactive,inactive
CCCC(=O)Nc1ccc(-c2nc3cc(C(C)C)ccc3o2)cc1,inactive,inactive
O=C(NC1CCCCCCC1)c1ccccc1-c1ccccc1,inactive,inactive
C[C@@H]1CN([C@H](C)CO)C(=O)c2cc(NC(=O)Cn3cnnn3)ccc2O[C@@H]1CN(C)C(=O)Nc1ccccc1,inactive,inactive
C[C@H]1CN([C@@H](C)CO)C(=O)Cc2cc(NC(=O)Nc3ccc(C(F)(F)F)cc3)ccc2O[C@H]1CN(C)S(C)(=O)=O,inactive,inactive
C[C@@H]1CN([C@@H](C)CO)C(=O)Cc2cc(NC(=O)NC3CCCCC3)ccc2O[C@H]1CN(C)Cc1ccc(Cl)c(Cl)c1,inactive,inactive
COCC(=O)Nc1ccc2c(c1)OC[C@H](C)N(C(=O)Cc1cccnc1)C[C@@H](C)[C@H](OC)CN(C)C2=O,inactive,inactive
COc1ccccc1-c1ccc2c(c1)O[C@@H](CN(C)C(=O)c1ccncc1)[C@@H](C)CN([C@@H](C)CO)S2(=O)=O,inactive,inactive
O=C1C[C@H](N2C(=O)CCC2=O)[C@@H]2CO[C@@H]1O2,inactive,inactive
